# Out of some 360,000 compounds screened, about 740 (0.21%) were called active. Inconclusive means that the source gave no clear call. Such entries were picked first, then a sample of the others. Calls come from the whole dose curve; as a rule, active = well fitted inhibition curve with a large enough effect; inconclusive = small, poorly fitted or top-dose-only effect; inactive = no such curve, though single readings can be large or run the other way. No potency is given beside an inconclusive call; the fits are too rough.
# Test system: Plasmodium falciparum AMA1 (3D7) - RON2 peptide interaction
# Assay: qHTS for Inhibitors of AMA1-RON; Towards Development of Antimalarial Drug Lead: Primary Screen; note: nearly all actives have a fitted effect of over 45% in size;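 for activity change, negative = inhibition: 0% = vehicle wells and -100% = peptide control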
# Conditions: AlphaScreen AMA1-biotinylated RON2 peptide binding; activity change, negative = inhibition: at 58.2 µM (top of the series) unless noted
# Summary of the method: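 AMA1 (3D7) with his tag at 25 nM final met compounds first, then biotinylated RON2 peptide at 25 nM; detection used donor plus acceptor beads, 10 µg/mL apiece, read by AlphaScreen after 30 min at room temperature.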
# Potency is the fitted concentration of half-maximal effect; tags give direction and shape of the fitted curve.
Compound,Potency,"activity change, negative = inhibition"
COc1ccccc1C(=O)Nc1cccc(NC(=O)c2ccccc2OC)n1,"inconclusive [inhibitor, full curve]",–
Cc1ccc(S(=O)c2snnc2C)cc1 (configuration not stated),–,inactive: -13.8%
COC(=O)c1cc(S(=O)(=O)NCc2ccc3c(c2)OCO3)cn1C,–,inactive: -1.65%
Nc1cccc2c(O)cc(S(=O)(=O)O)cc12,"inconclusive [inhibitor, single point]",–
O=C1/C(=C/c2ccc3c(c2)OCO3)CCC/C1=C\c1ccc2c(c1)OCO2,"inconclusive [inhibitor, partial curve]",–
O=C1/C(=C\c2ccco2)CCC/C1=C\c1ccco1,"inconclusive [inhibitor, single point]",–
CC1CCN(Cc2c(O)ccc3c2O/C(=C\c2ccco2)C3=O)CC1,"inconclusive [inhibitor, single point]",–
COc1ccccc1/C=C/C=N\N1CCN(Cc2ccccc2Cl)CC1,active: 20 µM,–
CC1Oc2ccccc2C=C1/C=N/NC(=O)c1ccccc1 (configuration not stated),–,inactive: 16.4%
Cc1c(Cl)cccc1NS(=O)(=O)c1ccc2c(c1)C1C=CCC1C(c1ccc(C(=O)O)cc1)N2 (configuration not stated),"inconclusive [inhibitor, single point]",–
CC(C)(C)S(=O)(=O)c1nc2ccccc2s1,"inconclusive [inhibitor, full curve]",–
Cc1c(C#N)c(N=CN(C)C)c(C(=O)c2ccc(Br)cc2)n1-c1ccc(Cl)cc1,–,inactive: -4.75%
COc1cccc(C(C)N(C)Cc2nc(COc3ccccc3)no2)c1 (configuration not stated),–,inactive: 15.8%
CCCCNC(=O)CNC(=O)c1nn(-c2ccc(OC)c(Cl)c2)c(=O)c2ccccc12,–,inactive: 8.58%
Cc1cc2cc(CNC(=S)NCc3ccccc3)ccc2n1C,"inconclusive [inhibitor, single point]",–
CCCCc1c(C)[nH]c(C(=O)OCC)c1C,"inconclusive [inhibitor, partial curve]",–
N#C/C(=C/c1ccc2c(c1)OCO2)C(=O)NCCc1c[nH]c2ccccc12,"inconclusive [inhibitor, single point]",–
c1ccc2nc(N3CCN(Cc4ccc5c(c4)OCO5)CC3)cnc2c1,"inconclusive [inhibitor, single point]",–
Cc1ccc(C(=S)N2CCN(Cc3ccccc3)CC2)s1,"inconclusive [inhibitor, single point]",–
CC1CC(C)(C)NC(=S)N1CC(=O)N1CCN(Cc2ccccc2)CC1 (configuration not stated),"inconclusive [inhibitor, single point]",–
Clc1ccc(CO/N=C/c2c(-c3ccccc3)nc3n2CCS3)c(Cl)c1,"inconclusive [inhibitor, single point]",–
CC(C)[C@H](CO)N(Cc1cccc(F)c1)c1nc(Nc2cccc(Cl)c2)c2ncn(C(C)C)c2n1,–,inactive: -9.18%
O=C(O)COc1ccc(Br)cc1/C=N\Nc1ccccn1,–,inactive: 28.3%
Cc1ccc2cn[nH]c2c1NC(N)=S,–,inactive: 34.2%

Compound,Potency,"activity change, negative = inhibition"
CC1CCN(C(=O)COC(=O)c2ccc(Br)o2)CC1,–,inactive: 5.62%
C(=C\c1ccccc1)/CN1CCN(C(c2cccc3ccccc23)c2nnnn2C2CCCC2)CC1 (configuration not stated),"inconclusive [inhibitor, partial curve]",–
Cc1ccc(-c2nnc(SCC(=O)NCC3CCCO3)nc2-c2ccc(C)cc2)cc1 (configuration not stated),–,inactive: -17.4%
Cc1ccc(C(=O)NCCc2cc3ccc(C)c(C)c3[nH]c2=O)cc1[N+](=O)[O-],–,inactive: -11.1%
CCOc1ccc(CN(CCCl)CCCl)cc1C(=O)OC,"inconclusive [inhibitor, single point]",–
COc1ccc(C=O)cc1COc1ccc2c(c1)OCO2,"inconclusive [inhibitor, single point]",–
NC(=O)Cn1c(=O)n(C2CCCCC2)c(=O)c2c3c(sc21)CCCCC3,–,inactive: -4.96%
Nc1ccc(Br)c2c1C(=O)c1ccccc1C2=O,"inconclusive [inhibitor, full curve]",–
C=CCNC(=O)CSc1nnc(-c2ccncc2)n1CCc1ccccc1,"inconclusive [inhibitor, single point]",–
COc1ccc(-c2nnc(SCc3csc(N)n3)n2C)cc1,–,inactive: 11.3%
COC(=O)c1cc2c(ccn2-c2ccc(F)cc2)n1Cc1ccc(C#N)cc1,"inconclusive [inhibitor, full curve, poor fit]",–
N#C/C(=C\c1c(N2CCCCC2)nc2ccccn2c1=O)S(=O)(=O)c1ccccc1,"inconclusive [inhibitor, partial curve]",–
COc1ccc(C2C3=C(CC(C)(C)CC3=O)Oc3ncn4nc(-c5ccccc5)nc4c32)cc1 (configuration not stated),"inconclusive [inhibitor, single point]",–
CCN(CC)C(=O)N[C@H]1C[C@@H]2c3cccc4[nH]cc(c34)C[C@H]2N(C)C1,"inconclusive [inhibitor, full curve]",–
O=C1C2C(C(=O)N1Cc1cccnc1)C1C=CC2C12CC2 (configuration not stated),–,inconclusive: -9.78% [inhibitor]
Cc1cccc(S(=O)(=O)N/N=c2\sc3ccccc3n2C)c1,–,inactive: -0.876%
CCOC(=O)N1CCN(CC(O)COc2ccc(OC)cc2C(C)(C)C)CC1 (configuration not stated),–,inactive: 5.23%
Cc1ccc(NC2c3ncccc3C(=O)N2Cc2cccs2)cc1C (configuration not stated),"inconclusive [inhibitor, full curve, poor fit]",–
CN(Cc1cccc(Cl)c1Cl)c1ccc(S(=O)(=O)N2CCCCC2)cc1[N+](=O)[O-],"inconclusive [inhibitor, partial curve]",–
O=C(c1ccccc1F)N1CCC2CC1c1cc(N3CCCCC3)ccc12 (configuration not stated),"inconclusive [inhibitor, partial curve]",–
O=C(CCN1C(=O)/C(=C/c2ccco2)SC1=S)Nc1ccc(O)cc1C(=O)O,"inconclusive [inhibitor, full curve, poor fit]",–
Oc1ccc(CCc2n[nH]c(=S)n2-c2ccc(F)cc2)cc1,–,inactive: 65.3%
O=C1C(=O)c2ccccc2C(O)=C1CC=C(Cl)Cl,"inconclusive [inhibitor, single point]",–
O=C(COc1ccc2ccccc2c1)N1CCN(Cc2ccncc2)CC1,"inconclusive [inhibitor, partial curve]",–

Compound,Potency,"activity change, negative = inhibition"
Cc1ccc(C(=O)Nc2ccc(Nc3ccccc3)cc2)cc1Br,"inconclusive [inhibitor, partial curve]",–
COc1cccc2c(=O)n(CC(=O)NC3CCCC3)ccc12,–,inactive: 11.9%
O=[N+]([O-])c1cccc2c3c([nH]c12)CCCC3,"inconclusive [inhibitor, partial curve]",–
COc1cccc(CNCCc2c[nH]c3ccccc23)c1OCc1ccccc1,"inconclusive [inhibitor, partial curve]",–
C/C(=N\Nc1ccc(C(F)(F)F)cc1[N+](=O)[O-])C(C)C,"inconclusive [inhibitor, single point]",–
O=C(Nc1cccc(-c2nc3ccccc3s2)c1)C1=COCCO1,–,inactive: 5.35%
Cn1c(SCC(=O)NCc2cccs2)nnc1-c1ccncc1,"inconclusive [inhibitor, single point]",–
COC(=O)C(Cc1ccc(OC(=O)c2ccc(Cl)cc2)cc1)N1Cc2ccccc2C1=O (configuration not stated),–,inactive: -3.89%
O=C(O)c1cc(-c2ccco2)nc2ccc(Br)cc12,"inconclusive [inhibitor, single point]",–
CC1=NN(c2ccc(Br)cc2)C(=O)/C1=C/c1cccs1,"inconclusive [inhibitor, partial curve]",–
COC(=O)CCc1sc(NC2CCCCC2)nc1-c1ccc(OC)cc1,"inconclusive [inhibitor, full curve]",–
Cc1cc(C)cc(-n2ccnc2SCC(=O)Nc2ccc3c(c2)OCCO3)c1,"inconclusive [inhibitor, single point]",–
COc1ccc(OC)c(CC(=O)Nc2ccc3c(c2)CCC3)c1,"inconclusive [inhibitor, single point]",–
C/C(=N/N1CCN(Cc2cccc3ccccc23)CC1)c1cccnc1,"inconclusive [inhibitor, partial curve, poor fit]",–
O=C(c1ccccc1)c1ccc(Oc2ccc([N+](=O)[O-])cc2[N+](=O)[O-])cc1,"inconclusive [inhibitor, partial curve]",–
CC1CCCC(C)N1/N=C/c1ccc(C#N)cc1 (configuration not stated),"inconclusive [inhibitor, partial curve]",–
Cc1ccc2c(c1)-c1c(ssc1=S)C(C)(C)N2C(=O)CN1C(=O)c2ccccc2C1=O,"inconclusive [inhibitor, partial curve]",–
c1ccc(-c2csc(Nc3ccc4c(c3)OCO4)n2)cc1,"inconclusive [inhibitor, single point]",–
O=[N+]([O-])c1ccccc1Nc1nc(-c2cccnc2)cs1,"inconclusive [inhibitor, partial curve]",–
CC(=O)CSc1ccc(-c2nc3ccccc3[nH]2)cn1,–,inactive: -1%
CC1CCN(C(=O)CSc2ccc(-c3ccccc3)nn2)CC1,–,inactive: -2.36%
COc1ccc(OCc2cccc(C(=O)Nc3ccc(CN4CCCCC4)cc3)c2)cc1,"inconclusive [inhibitor, partial curve]",–
Cn1c(SCC(=O)OC2CCCCC2)nnc1-c1ccco1,–,inactive: 1.46%
Cc1ccc(C(=O)N(C)CC(=O)Nc2ccc(N3CCOCC3)cc2)s1,"inconclusive [inhibitor, partial curve]",–
